Laboratory results: PubChem BioAssay AID360 (National Center for Advancing Translational Sciences (NCATS), 2006)
The campaign covered roughly 48,000 compounds. About 550 (1.1%) were called active. Not shown: some 4% with an inconclusive outcome. Cut-off read from the data, not from the text of the source: active = potency below about 15 µM; inconclusive = mostly about 16 µM to 33 µM; inactive = weaker than that. The list shows a part of the results.

Molecular target: Lysosomal acid glucosylceramidase (Homo sapiens) (UniProt P04062)
Chain of UniProt P04062 (P04062 whole entry, looked up): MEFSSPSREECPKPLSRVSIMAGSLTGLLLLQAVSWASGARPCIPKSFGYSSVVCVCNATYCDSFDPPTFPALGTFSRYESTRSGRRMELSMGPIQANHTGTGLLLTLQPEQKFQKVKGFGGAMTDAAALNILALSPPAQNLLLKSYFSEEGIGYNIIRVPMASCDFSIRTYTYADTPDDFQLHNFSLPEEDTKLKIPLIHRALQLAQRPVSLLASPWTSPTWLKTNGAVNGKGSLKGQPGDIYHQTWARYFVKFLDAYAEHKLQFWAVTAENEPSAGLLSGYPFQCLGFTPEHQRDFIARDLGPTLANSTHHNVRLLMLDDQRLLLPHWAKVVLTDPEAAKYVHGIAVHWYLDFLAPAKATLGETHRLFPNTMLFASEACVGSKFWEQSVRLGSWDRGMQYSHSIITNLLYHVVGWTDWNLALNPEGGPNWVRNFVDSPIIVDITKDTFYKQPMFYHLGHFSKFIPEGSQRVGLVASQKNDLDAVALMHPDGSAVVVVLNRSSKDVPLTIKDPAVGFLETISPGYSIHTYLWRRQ
Test: Glucocerebrosidase;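 note: the screen sought inhibitors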
Conditions: purified enzyme, resorufin glucoside fluorescence (screen aimed at inhibitors), 20 min
Procedure, shortened: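 Wild-type enzyme at 0.2 nM final in 50mM citric acid/KH2PO4, 10mM sodium taurocholate, 0.01% tween-20, pH 5.9, with resorufin beta-D-glucopyranoside at 30 uM final. Compounds titrated, 20 min at RT, red fluorescence read; AC50 from titration.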
Potency is the fitted concentration of half-maximal effect.

Potency, inactive:
O=C(c1cc2ccccc2o1)N1CCN(c2ccccc2Cl)CC1 > 76.9 µM
CCn1c(=O)cc(OCC(=O)NCC2CCCO2)c2ccccc21 (stereo not drawn) > 76.9 µM
CS(=O)(=O)N1CCC(C(=O)NCc2ccncc2)CC1 > 76.9 µM
CCn1cnc2sc(-c3ccccc3)cc2c1=O > 76.9 µM
OC(COCC1COc2ccccc2O1)CN1CCN(c2ccccn2)CC1 (stereo not drawn) > 76.9 µM
CCCc1cc(=O)[nH]c(SCC(=O)N2CCN(c3ccc(F)cc3)CC2)n1 > 76.9 µM
CCOc1cc(C2C3=C(CCCC3=O)N(C)C3=C2C(=O)CCC3)cc(Cl)c1O > 76.9 µM
CCCn1c(C)cc(=O)c2cc(NC(=O)c3cnccn3)ccc21 > 76.9 µM
CCOc1ccc(-n2c(=S)sc3c(=O)[nH]c(SCC(=O)NCc4ccco4)nc32)cc1 > 76.9 µM
COC(=O)C1=C2SC(C)C(=O)N2C(N)=C(C#N)C1c1cc(OC)c(OC)c(OC)c1 (stereo not drawn) > 76.9 µM
COc1ccc(C)cc1NC(=O)CSc1nnc(-c2ccc(Br)cc2)o1 > 76.9 µM
CCCn1c(SCc2cc(=O)[nH]c3ccccc23)nc2c1c(=O)n(C)c(=O)n2C > 76.9 µM
O=C(NC1CC2CCCC(C1)N2C(=O)N1CCCCC1)C1CCCCC1 (stereo not drawn) > 76.9 µM
CC1(C)NC(=O)N(CCCSc2ccc(Cl)cc2)C1=O > 76.9 µM
COc1cccc(C(=O)N(Cc2nc(-c3cccc(C)c3)no2)C(C)C)c1OC > 76.9 µM
Cc1noc(C)c1COC(=O)c1ccccc1Oc1ccccc1 > 76.9 µM
CC(C)c1ccccc1NC(=O)c1cnccn1 > 76.9 µM
CCCn1c(=O)c2ccccc2n2c(SCc3nnc(-c4ccccc4Br)o3)nnc12 > 76.9 µM
COc1ccc(CCN2C(=O)CC(C(N)=O)SC2=Nc2ccccc2)cc1OC (stereo not drawn) > 76.9 µM
O=C(Nc1ccc(F)cc1)N1CCn2c(nc3ccccc32)C1 > 76.9 µM
CCOc1ccc(NC(=O)CN(C)CC(=O)NC2CCCc3ccccc32)cc1OCC (stereo not drawn) > 76.9 µM
COc1cc(-c2nnc(-c3cccnc3)o2)cc(OC)c1OC > 76.9 µM
O=C(C(NS(=O)(=O)c1cccc2nsnc12)c1ccccc1)N1CCN(c2ccccn2)CC1 (stereo not drawn) > 76.9 µM
Cc1sc(NC(=O)CSc2nnc(COc3ccc(Cl)cc3)n2C)c(C#N)c1C > 76.9 µM
N#CC1=C(N)Oc2c(oc(CO)cc2=O)C1c1ccsc1 (stereo not drawn) > 76.9 µM
O=C(CCN1C(=O)C2C3C=CC(C3)C2C1=O)Nc1c(F)cccc1F (stereo not drawn) > 76.9 µM
O=C(NCc1csc(-c2ccccc2)n1)c1ccco1 > 76.9 µM
Cc1ccc(-c2cc(C(=O)N3CCOCC3)c3ccccc3n2)cc1 > 76.9 µM
Cc1nn(-c2ccccc2)c2[nH]c(C(F)(F)F)cc(=O)c12 > 76.9 µM
O=C(CN1CCOCC1)NCc1ccccc1 > 76.9 µM
COc1ccccc1C(=O)NC(C)C(c1cccs1)N1CCOCC1 (stereo not drawn) > 76.9 µM
CN1CCN(c2nc3nonc3nc2N2CCN(C)CC2)CC1 > 76.9 µM
Cc1cc(C)nc(N(C#N)CC(=O)Nc2ccccc2)n1 > 76.9 µM
CC1CCc2c(nc3ncnn3c2N2CC(C)OC(C)C2)C1 (stereo not drawn) > 76.9 µM
CC(O)CNc1nc2c(c(=O)n(C)c(=O)n2C)n1C/C=C/c1ccccc1 (stereo not drawn) > 76.9 µM
CCOC(=O)C1C(=O)NC(N2CCCCC2)=NC1c1ccccc1 (stereo not drawn) > 76.9 µM
COc1ccc(C)cc1N(CC(=O)NC1CCCC1)C(=O)CCC(=O)Nc1cc(C)on1 > 76.9 µM
Cc1ccc(C(=O)OCC(=O)Nc2ccccc2)cc1NC(=O)c1ccco1 > 76.9 µM
Cc1cc(C(=O)Nc2ccc(S(=O)(=O)N3CCCC3)cc2)cs1 > 76.9 µM
Cn1c2ccccc2c2ncn(Cc3ccco3)c(=O)c21 > 76.9 µM
Cc1ccc(S(=O)(=O)N(c2ccccc2)C2CCS(=O)(=O)C2)cc1 (stereo not drawn) > 76.9 µM
COc1ccccc1C1C2=C(N=C3SCC(=O)N31)c1ccccc1CC2 (stereo not drawn) > 76.9 µM
COc1ccc(-n2c(Cc3cccn3C)nnc2SCC(=O)Nc2cccc(NC(C)=O)c2)cc1 > 76.9 µM
O=C(NCc1ccccc1)NC(=O)c1ccncc1 > 76.9 µM
CC(=O)Nc1ccc(S(=O)(=O)N2CCSC2C(=O)O)cc1 (stereo not drawn) > 76.9 µM
O=C(Oc1ccccc1C(=O)N1CCOCC1)c1cccc(Br)c1 > 76.9 µM
COc1cccc(C2/C(=C(/O)c3ccncc3)C(=O)C(=O)N2CCCN2CCOCC2)c1OC (stereo not drawn) > 76.9 µM
Cc1ccc(C2C(C(=O)c3sc(C)nc3C)=C(O)C(=O)N2CCN2CCOCC2)o1 (stereo not drawn) > 76.9 µM
Cc1csc2nc(CNS(=O)(=O)c3cccnc3)cn12 > 76.9 µM
COC(=O)c1ccccc1NC(=O)c1ccc(NS(C)(=O)=O)cc1 > 76.9 µM
COc1ccc(-n2c(SCC(=O)N3CCCC(C)C3)nnc2-c2cccnc2)cc1 (stereo not drawn) > 76.9 µM
COc1cc2nc(NCC3CCCO3)n3nc(-c4cccnc4)nc3c2cc1OC (stereo not drawn) > 76.9 µM
CCOC(=O)c1c(C)c(C(=O)NC2CCCCC2)c(C)n1CC > 76.9 µM
CC(O)CNc1nc2c(c(=O)n(C)c(=O)n2C)n1Cc1cccc(Br)c1 (stereo not drawn) > 76.9 µM
CCCN(CCC)CCNC(=O)C1CCN(Cc2nc(-c3ccc(Cl)cc3)oc2C)CC1 > 76.9 µM
Cc1ccc(S(=O)(=O)Cc2ccc(C(=O)NCCCN3CCN(C)CC3)o2)cc1 > 76.9 µM
c1ccc(-c2cnc(CSc3nnc4ccccn34)o2)cc1 > 76.9 µM
CC(C)C(=O)Nc1cccc(-c2nc3ccccc3o2)c1 > 76.9 µM
CS(=O)(=O)N(Cc1nc2sc3c(c2c(=O)[nH]1)CCCC3)C1CCCCC1 > 76.9 µM
Cc1ccc(Cn2c(SCC(C)C)nc3c2c(=O)[nH]c(=O)n3C)cc1 > 76.9 µM
O=C(NCc1cccs1)c1cc2ccccc2o1 > 76.9 µM
O=C(NCc1cccnc1)C1CCN(S(=O)(=O)c2cccnc2)CC1 > 76.9 µM
CCNS(=O)(=O)c1ccc(NC(=O)c2ccccc2OCC)cc1 > 76.9 µM
Nc1ncc(-c2cc3ccccc3oc2=O)s1 > 76.9 µM
O=C(O)CCC(=O)Nc1ccc(N2CCCCCC2)cc1 > 76.9 µM
C=CCOc1cccc(C2/C(=C(/O)c3ccccc3)C(=O)C(=O)N2CCN2CCOCC2)c1 (stereo not drawn) > 76.9 µM
CCCn1c(=O)c2ccccc2n2c(SCc3nc4ccccc4s3)nnc12 > 76.9 µM
CC(C)n1nnnc1SCC(=O)N1CCOCC1 > 76.9 µM
c1ccc(-c2cc(-c3nnc4sc(-c5ccccn5)nn34)[nH]n2)cc1 > 76.9 µM
O=C(COc1ccccc1Br)c1ccc(O)cc1O
CC(=O)c1c(C)[nH]c(C(=O)COC(=O)CNS(=O)(=O)c2ccccc2)c1C > 76.9 µM
O=C(Nc1ccc2c(c1)OCCO2)c1ccncc1 > 76.9 µM
C=CCn1c(NC(=O)c2ccco2)c(S(=O)(=O)c2ccccc2)c2nc3ccccc3nc21 > 76.9 µM
COc1cccc(NC(=O)NCCCN2CCN(c3ccc(F)cc3)CC2)c1 > 76.9 µM
O=C(O)CSCNC(=O)CC12CC3CC(CC(C3)C1)C2 > 76.9 µM
COc1ccc2c(c1OC)C(=O)N1C(C(=O)O)Cc3c([nH]c4ccccc34)C21 (stereo not drawn) > 76.9 µM
CC(C)CN(C(=O)COC(=O)CCc1c[nH]c2ccccc12)C1CCS(=O)(=O)C1 (stereo not drawn) > 76.9 µM
Cc1ccc(S(=O)(=O)N2CCN(C(=O)N3CCOCC3)C2c2ccc(N(C)C)cc2)cc1 (stereo not drawn) > 76.9 µM
COc1ccc(Cl)c(Cn2c(NCCCN(C)C)nc3c2c(=O)n(C)c(=O)n3C)c1 > 76.9 µM
C=CCn1c(SCC(=O)N2CCN(C(=O)c3ccco3)CC2)nc2sc(CC)cc2c1=O > 76.9 µM
CCOC(=O)C1(CC)NC(c2cccc(F)c2)C2C(=O)N(CC)C(=O)C21 (stereo not drawn) > 76.9 µM
Cn1cc(C(=O)c2ccc(Cl)cc2)cc1-c1nc2ccccc2n1C
Cn1c(=O)[nH]c(=O)c2c1nc(NC1CCCCC1)n2Cc1ccccc1 > 76.9 µM
O=C(c1ccc(S(=O)(=O)N2CCOCC2)cc1)N(Cc1ccco1)Cc1cccs1 > 76.9 µM
CCCCOC(=O)C1Cc2ccccc2C(=O)O1 (stereo not drawn) > 76.9 µM
COc1ccc(C(=O)c2ccc(N3CCN(C4CC(=O)NC4=O)CC3)cc2)cc1F (stereo not drawn) > 76.9 µM
CCCOC(=O)C1=C(C)NC2=C(C(=O)C(C(=O)OC)C(C)C2)C1c1ccc(N(CC)CC)cc1 (stereo not drawn) > 76.9 µM
COC(=O)c1cc(C(=O)OC)cc(S(=O)(=O)Nc2ccc(Cl)c(N)c2)c1 > 76.9 µM
